Data published in the BET-seq Pho4 binding data (Le et al. 2018).
The other results are listed elsewhere or left out. The energies were worked out here from pooled read counts, against the library average; single values are noisy.

biological target: T1, Pho4 (S. cerevisiae) (UniProt P07270); experiment: relative binding free energy (BET-seq); higher = weaker binding; settings: reference: library average
T1 sequence: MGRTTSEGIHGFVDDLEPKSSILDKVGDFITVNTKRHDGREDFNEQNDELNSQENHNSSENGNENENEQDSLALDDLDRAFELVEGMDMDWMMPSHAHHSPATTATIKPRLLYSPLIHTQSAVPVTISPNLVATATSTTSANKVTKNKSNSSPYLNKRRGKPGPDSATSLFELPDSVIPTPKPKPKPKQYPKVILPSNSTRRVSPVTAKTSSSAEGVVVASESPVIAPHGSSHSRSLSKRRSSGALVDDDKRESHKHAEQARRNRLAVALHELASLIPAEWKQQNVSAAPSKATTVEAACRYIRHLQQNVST

Sequence	relative binding free energy [kcal/mol]
TGTGGCACGTGTCAAG	-0.21
TAGGCCACGTGTTCGT	-0.04
GGGGACACGTGGAATA	0.23
GGGAACACGTGGGTGG	-0.04
TAGTGCACGTGGGTAC	-0.11
TCTATCACGTGAATGT	0.3
AGAGGCACGTGGTGAC	-0.19
TTATGCACGTGATTTG	0.1
TTTTCCACGTGGTATA	-0.04
TTGCTCACGTGCAGGG	0.23
TTGAACACGTGTAGTT	-0.04
ATTATCACGTGTAGCG	0.11
GATGTCACGTGGATGG	0.15
TGTGGCACGTGGGTTT	-0.21
ATTCACACGTGGTGGG	-0.07
AAAGTCACGTGGTCGT	0.06
GATTACACGTGAGAGT	0.29
TACTTCACGTGGTGGA	0.13
AATTGCACGTGGAGGT	0.03
TTTGACACGTGCCGGT	-0.12
TGGGTCACGTGGGTAA	0
GTACACACGTGGAGGT	0
GTTAACACGTGATATT	0.21

Sequence	relative binding free energy [kcal/mol]
TTTTTCACGTGCAGTG	0.34
GAACGCACGTGGGGTG	-0.26
CTTGGCACGTGTCAGG	-0.16
GTTCGCACGTGGTTAA	0.02
GGATGCACGTGGGGCC	-0.08
TGTGGCACGTGGCGAA	-0.07
AAGGCCACGTGTGGTT	0
AATGGCACGTGAGGGA	0.09
GTTATCACGTGAGGTG	0.37
ATAGGCACGTGTTAGC	-0.09
CTTGGCACGTGTAATG	0.02
GTCTACACGTGCTGGG	0.23
GAGGACACGTGTTTAA	0.31
GATGTCACGTGGAGGT	0.14
AGTTACACGTGGTTTA	0.06
CGATACACGTGTGTGT	-0.08
GTGCGCACGTGTTAGG	-0.08
GGAGGCACGTGGTTGC	-0.13
TCGTTCACGTGAAGGG	0.45
TAAGTCACGTGGTGGA	0.09
TTCGGCACGTGCTGGG	-0.09
TTATTCACGTGGAAGG	0.35
CGATACACGTGTTTGT	0

Sequence	relative binding free energy [kcal/mol]
CGGTTCACGTGTGTGG	0.29
TTCGCCACGTGTTTTG	0
AGGGTCACGTGATGCA	0.09
CTGTGCACGTGGTTAG	-0.08
TTAGTCACGTGTGGAT	0.17
GGGATCACGTGATCGG	0.34
TATTACACGTGTTGTA	0.19
GCTGACACGTGGAGGG	0.14
CCTTTCACGTGTGGGG	0.35
TGATTCACGTGGGCAT	0.16
TGGAGCACGTGAATGA	0.21
ACGTTCACGTGGGGAG	0.18
GGATGCACGTGGATTA	0.01
TTGTCCACGTGGGTTT	0.04
CTTGGCACGTGATGGT	0.03
GGGGACACGTGCCTGG	-0.08
ATGGTCACGTGTGATC	0.19
CGTTTCACGTGGTGAT	0.12
GGCGTCACGTGGGGGT	0.04
GGGGGCACGTGTATCG	0.04
GTGCTCACGTGGTTTG	0.22
GGGAACACGTGCGGTT	-0.07
GTGCTCACGTGGTGCT	0.24

Sequence	relative binding free energy [kcal/mol]
ATTTGCACGTGCTGTG	-0.06
AAGTTCACGTGTTCGT	0.26
TTTTGCACGTGGACAG	-0.17
GCGTTCACGTGTGGGG	0.37
GTAGTCACGTGCGGTT	0.19
GGCATCACGTGGGTGA	0.06
GGCGGCACGTGAGAGT	0.31
GTGTTCACGTGATTTA	0.43
AGTAACACGTGATGTA	-0.01
TCTTGCACGTGTTTGA	-0.1
GGTGACACGTGCGCTG	-0.03
GGGACCACGTGGGTAT	-0.16
ATTGACACGTGTGACG	0.09
GAGTTCACGTGGGTTG	0.2
TAGGGCACGTGCGCTG	-0.27
GTTAGCACGTGTTAGA	0.01
CTATTCACGTGTGTGT	0.18
TCAGACACGTGGTGTA	-0.13
TATGTCACGTGGCCTT	-0.02
CATTTCACGTGTAGTG	0.17
AGGGGCACGTGTAGGA	-0.06
GGCTGCACGTGTATGT	-0.09
GCTATCACGTGTTAGG	0.33

Sequence	relative binding free energy [kcal/mol]
TCGTTCACGTGAGGGT	0.49
TATTACACGTGGGCAG	0.12
TCTTGCACGTGGGTCG	-0.16
GGTTACACGTGCGATG	0.17
AGTGGCACGTGAGCCG	0.11
GTTAACACGTGTATGA	0.03
TTATACACGTGGATTT	0.05
GACTACACGTGTGTGG	0.27
TCATTCACGTGCAGGG	0.31
TAATGCACGTGGCTGT	-0.18
TTTGCCACGTGAGGTG	0.11
GCGGCCACGTGTGTGT	-0.14
GGGCGCACGTGCGGTG	-0.06
GCTGGCACGTGGGTGC	-0.2
TGAAGCACGTGCTTTT	-0.04
GTAGGCACGTGGCGTC	-0.26
TGCTTCACGTGCGGGG	0.24
AGTCGCACGTGGAAGG	-0.06
GAAGACACGTGGGGAT	-0.01
GGTGACACGTGGTTCA	0.19
ATATGCACGTGTATGG	-0.15
TGATTCACGTGAGAGA	0.42
TCGGTCACGTGTGATA	0
